{"source": "ChEMBL document CHEMBL4888484", "about": "“Replenishing the malaria drug discovery pipeline: Screening and hit evaluation of the MMV Hit Generation Library 1 (HGL1) against asexual blood stage Plasmodium falciparum ,using a nano luciferase reporter read-out” (2022)", "note": "Out of some 150,000 compounds screened, about 540 (0.36%) showed an effect of 50% or more. The list shows a part of the results."}
{"test_system": "Plasmodium falciparum", "experiment": "Primary screen in NF54 nanoGlo assay, in single point, at 2uM, 72h; a lower Z score goes with more inhibition", "type": "functional, Erythrocyte", "conditions": "timepoint 72 hour", "units": {"% Inhibition": "%"}}
{"smiles": "C[C@H]1OCC[C@H]1NCc1cscc1C(F)(F)F", "% Inhibition": -8, "Z score": 1.11}
{"smiles": "Cc1cccc(N2CCC(NC(=O)c3c(-c4ccccn4)noc3C)CC2)n1", "% Inhibition": -5, "Z score": 0.74}
{"smiles": "COC[C@@](O)(CNS(=O)(=O)c1ccc(-n2cccn2)cc1)c1ccccc1", "% Inhibition": -9, "Z score": 1.55}
{"smiles": "CCc1csc(CC2CCN(Cc3ccccc3C(=O)O)CC2)n1", "% Inhibition": -5, "Z score": 0.86}
{"smiles": "CCc1nc(C)c(C(=O)N2CCC[C@H]2c2nc3ccccc3s2)o1", "% Inhibition": 1, "Z score": -0.11}
{"smiles": "Cn1nnnc1N1CCCC2CN(CCC#N)CC21", "note": "(stereo not drawn)", "% Inhibition": 2, "Z score": -0.27}
{"smiles": "Cc1ncc(-c2cnc(C3CC3)o2)cc1N", "% Inhibition": -4, "Z score": 0.8}
{"smiles": "N#Cc1c(N)c(-c2ccccc2)c(F)c2ccccc12", "% Inhibition": -4, "Z score": 0.57}
{"smiles": "COCC(=O)N1CCN(S(=O)(=O)c2ccccc2)C[C@@H]1C(=O)N[C@H](Cc1cccnc1)C(=O)OC", "% Inhibition": 11, "Z score": -1.7}
{"smiles": "CN(Cc1cnn(C)c1)C(=O)c1cn(C(c2ccccc2)c2ccccc2)nn1", "% Inhibition": 3, "Z score": -0.34}
{"smiles": "CCCCc1nc(COc2ccc3ncccc3c2)cs1", "% Inhibition": 1, "Z score": -0.12}
{"smiles": "COc1ccccc1S(=O)(=O)N1Cc2cncnc2C1", "% Inhibition": -14, "Z score": 2.44}
{"smiles": "Cc1ccc(Br)cc1NC(=O)CCNC(=O)c1ccc(-n2ccc(C(F)(F)F)n2)cc1", "% Inhibition": -10, "Z score": 1.97}
{"smiles": "CC(C)[C@H](C)N(C(=O)c1cc(-c2ccc(F)cc2)[nH]n1)C1CC1", "% Inhibition": -7, "Z score": 0.83}
{"smiles": "CN(C[C@@H](O)CNC(=O)OC(C)(C)C)C(=O)CCc1ccccn1", "% Inhibition": -4, "Z score": 0.52}
{"smiles": "CN1C(C(=O)N2CCOCC2)=CC(c2ccc3c(c2)OCO3)=NS1(=O)=O", "% Inhibition": -8, "Z score": 1.58}
{"smiles": "Cc1cc(=O)n(CC(=O)NCc2ccccc2Br)c(N2CCOCC2)n1", "% Inhibition": -19, "Z score": 1.65}
{"smiles": "CCOc1ccc([C@@H]2CC(c3ccccc3Cl)=NN2C(=O)CN2CCOCC2)cc1", "% Inhibition": 6, "Z score": -0.91}
{"smiles": "CCCc1cc([C@@H]2CCCN2Cc2c[nH]nc2-c2cccs2)no1", "% Inhibition": -6, "Z score": 0.75}
{"smiles": "Cc1nc2cc(N(C)C(=O)C[C@@H]3C[C@H]3c3ccccc3)ccc2[nH]1", "% Inhibition": 0, "Z score": 0.07}
{"smiles": "Cc1noc(COC2CN(C(=O)Nc3c(C)cc(Cl)c4ccccc34)C2)n1", "% Inhibition": -4, "Z score": 0.8}
{"smiles": "COCc1nc(C(=O)OCc2nc(C)c(C)s2)cs1", "% Inhibition": -5, "Z score": 0.98}
{"smiles": "CCCC(C(=O)N1CCCCC1c1ncon1)C(C)C", "note": "(stereo not drawn)", "% Inhibition": -2, "Z score": 0.23}
{"smiles": "CN(Cc1ccno1)C(=O)c1ccc(CCC(C)(C)O)cc1", "% Inhibition": -12, "Z score": 1.1}
{"smiles": "CCn1c(N)c(C(=O)CN2CCCCCC2)c(=O)[nH]c1=O", "% Inhibition": -10, "Z score": 0.91}
{"smiles": "Cc1c(Cl)cccc1NC(=O)CCNC(=O)NC[C@H]1CCCO1", "% Inhibition": 3, "Z score": -0.4}
{"smiles": "Cc1nc(C2CCCC2)sc1C(=O)N1CC(=O)Nc2cccnc21", "% Inhibition": 21, "Z score": -2.42}
{"smiles": "CNC(=O)[C@@H]1C[C@@H](n2cc(C(C)(C)NC(=O)Nc3ccccc3C)nn2)CN1", "% Inhibition": -12, "Z score": 1.7}
{"smiles": "CC(C)c1noc([C@H](C)NC(=O)CCS(C)(=O)=O)n1", "% Inhibition": -12, "Z score": 1.59}
{"smiles": "C=C(C)COc1ccccc1C(=O)N1CCc2[nH]nc(C(C)C)c2C1", "% Inhibition": -14, "Z score": 1.79}
{"smiles": "FC1(F)CC(Nc2cc(NC3CC(F)(F)C3)n3ncnc3n2)C1", "% Inhibition": -3, "Z score": 0.48}
{"smiles": "COc1cc2c(cc1OC)CN(C(=O)CC(c1ccccc1)c1ccccc1)CC2", "% Inhibition": -9, "Z score": 1.23}
{"smiles": "C[n+]1ccc(-c2ncc(-c3ccccc3)o2)c2ccccc21", "% Inhibition": 75, "Z score": -5.73}
{"smiles": "Cc1ccccc1Cn1cnc2c1c(=O)n(C1CCCC1)c(=O)n2-c1ccc(C(C)C)cc1", "% Inhibition": -14, "Z score": 1.28}
{"smiles": "COc1ccc2c(c1)OCCN(c1ncccn1)C2", "% Inhibition": 6, "Z score": -0.52}
{"smiles": "O=C(CS(=O)(=O)c1ccccc1)N1CCOCC1", "% Inhibition": -8, "Z score": 1.27}
{"smiles": "CC1CCCC(C(=O)NCc2cccc(=O)[nH]2)C1", "note": "(stereo not drawn)", "% Inhibition": 22, "Z score": -2.51}
{"smiles": "Fc1ccc(CCNc2cnccn2)cc1F", "% Inhibition": -14, "Z score": 2.19}
{"smiles": "O=C(NCc1cccc(C(F)(F)F)c1F)[C@H]1CCOC1", "% Inhibition": -11, "Z score": 0.98}
{"smiles": "Cc1ccc(S(=O)(=O)n2ccc3cccnc32)cc1", "% Inhibition": -15, "Z score": 2.83}
{"smiles": "Cc1cnn(Cc2ccccc2Cl)c1NC(=O)c1cnc2ccccn12", "% Inhibition": -8, "Z score": 1.09}
{"smiles": "CCCc1nc(N(C)C[C@H]2CCN(C)C2(C)C)no1", "% Inhibition": -10, "Z score": 1.41}
{"smiles": "Cc1ccc(C)n1-c1ccc(Cl)c(C(=O)NC[C@H](C)N2CCCC2)c1", "% Inhibition": -9, "Z score": 0.85}
{"smiles": "CCCC(=O)N1CCN(c2cc(-n3ccc(C)n3)ncn2)CC1", "% Inhibition": 1, "Z score": -0.09}
{"smiles": "O=C(Nc1ccccc1C(=O)N1CCCCC1)C1CCN(S(=O)(=O)Cc2ccc(F)cc2)CC1", "% Inhibition": 3, "Z score": -0.49}
{"smiles": "O=C(c1ccccc1)c1c2ccccn2c2cccc[n+]12", "% Inhibition": 7, "Z score": -0.76}
{"smiles": "O=C(NCCNC(=O)c1ccccc1Cl)N[C@@H]1COC2(CCCCC2)C1", "% Inhibition": -15, "Z score": 1.4}
{"smiles": "COc1ccc(C(=O)N2[C@H](C(=O)NCc3cccnc3)COC23CCN(C(=O)c2ccccc2C)CC3)cc1", "% Inhibition": -5, "Z score": 0.8}
{"smiles": "O=C([C@@H]1CCCO1)N1CCc2[nH]c3ccc(F)cc3c2C1", "% Inhibition": -10, "Z score": 1.58}
{"smiles": "Cn1cc(-c2cncc3c2CCCC3)cn1", "% Inhibition": -15, "Z score": 1.72}
{"smiles": "CCOC(OCC)c1cc(-c2ccncc2)[nH]n1", "% Inhibition": -6, "Z score": 1.03}
{"smiles": "O=S(=O)(NC[C@@H](c1cccc(Cl)c1)N1CCCC1)c1ccc2c(c1)OCO2", "% Inhibition": -10, "Z score": 1.36}
{"smiles": "Cc1nc(C2CCCN2S(=O)(=O)[C@H]2C[C@@H]2c2ccccc2)[nH]c1C", "note": "(stereo partly drawn)", "% Inhibition": -1, "Z score": 0.2}
{"smiles": "COc1ccccc1CCN1C[C@@H](C(=O)Nc2ccc3nc(C)[nH]c3c2)CC1=O", "% Inhibition": 1, "Z score": -0.14}
